Test results as given in paper PMC11603075 (Communications Biology, 2024).
One block for each substance: values may come before it.

Assays:
[1] = molecular target: T1, KDM4E (Homo sapiens, UniProt B2RXH2); test: KDM, RDM and hydroxylation (+16 Da) activities of KDM4E with histone peptide variants by MS; assay type: biochemical; conditions: MALDI–TOF or LC–MS, n = 3
T1 construct: KDM4E1–337; made in house; host or cells: E. coli
T1 sequence (B2RXH2 1-337): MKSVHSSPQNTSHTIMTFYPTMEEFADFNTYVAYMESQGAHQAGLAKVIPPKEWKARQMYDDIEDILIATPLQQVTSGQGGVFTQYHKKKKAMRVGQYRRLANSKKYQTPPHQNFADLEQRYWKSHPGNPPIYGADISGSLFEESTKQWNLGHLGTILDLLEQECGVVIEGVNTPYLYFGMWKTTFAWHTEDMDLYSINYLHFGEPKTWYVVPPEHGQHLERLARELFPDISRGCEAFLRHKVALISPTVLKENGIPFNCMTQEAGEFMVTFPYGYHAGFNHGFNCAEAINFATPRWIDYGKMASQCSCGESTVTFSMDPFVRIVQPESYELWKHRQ
Description: (§1) Fig. 3 KDM4E-catalysed hydroxylation occurs at Arg-20 on histone H2a peptide. a LC–MS/MS analysis of H2a(1–20) after KDM4E treatment. Two potential hydroxylation sites, R17 and R20, were identified, with the latter more likely (Supplementary Fig. 9). b Peptide variant studies support Arg-20 hydroxylation; specific activities: H2a(1–20), 0.65 nmol min^−1 mg^−1 SD: 0.073; H2a(1–20) with a C-terminal carboxylic acid (indicated with an -OH), no activity; H2a(1–20)R20A, no activity; H2a(1–20)R20K*, no activity; H2a(1–20)R20Kme3*, 0.44 nmol min^−1 mg^−1 SD: 0.04; H2a(1–20)R3me2a*, 0.51 nmol min^−1 mg^−1 SD: 0.05; H2a(1–20)R3A, 0.37 nmol min^−1 mg^−1 SD: 0.002; H2a(1–21)*, 0.65 nmol min^−1 mg^−1 SD 0.02; H2a(1–25, 0.35 nmol min^−1 mg^−1 SD: 0.044; and H2a(10–29), 0.02 nmol min^−1 mg^−1 SD: 0.013. Measurements employed MALDI–TOF MS except when labelled with*, which employed LC–MS (Supplementary Fig. 10 for representative MS data). n = 3 independent assays. c KDM, RDM and hydroxylation (+16 Da) activities of KDM4E are sequence and context dependent. Histone peptides (H2a, H3, H4) and variants (wild type residue in red, replaced with either K, Kme3, R or Rme2a) were incubated with KDM4E and analysed on MALDI–TOF MS. KDM, RDM and hydroxylation (+16 Da) were detected in some but not all peptides (Supplementary Fig. 10 for representative MS data). (−) No mass changes observed. n = 3 independent assays. See Supplementary Table 6 for conditions. TEXT PRINTED IN THE PICTURE: (c) H2a: K/R replacement K: -; K/R replacement Kme3: KDM/ROH; K/R replacement R: ROH; K/R replacement Rme2a: KDM/ROH | (c) H3: K/R replacement K: -; K/R replacement Kme3: KDM; K/R replacement R: -; K/R replacement Rme2a: RDM | (c) H4: K/R replacement K: -; K/R replacement Kme3: -; K/R replacement R: -; K/R replacement Rme2a: RDM DOUBTS OF THE COPYIST ABOUT THIS PICTURE: Panel c: the table cells are qualitative activity classes (KDM, RDM, ROH, -) for peptide variants, not numbers; it is uncertain whether they count as results. / Panel b: the bar chart prints no values beside the bars, so nothing was taken from it.
(§2) MS-based screening assays with peptides and calf thymus histones were as reported; see Supplementary Table 6 for conditions. Time course assays were based on reported procedures. In brief, equal volumes of the enzyme and substrate solutions were combined to initiate the reaction; 10 µL of 2% (v/v) formic acid (HCOOH) in ddH2O or 100% methanol was added to 10 µL of the reaction mixture to quench reactions at different time points. Unless otherwise stated, time course assays were carried out in triplicate. In some cases, LC–MS was used instead of MALDI-TOF MS to avoid a MALDI matrix induced artefact with the hydroxylated product (Supplementary Fig. 16).
Supplementary Figure 10 KDM, RDM and hydroxylation (+16 Da) activities of KDM4E are sequence and context dependent. Representative MALDI–TOF or LC –MS spectra for incubation of KDM4E with: (a) H 2 a( 1–20) w it h a C -terminal carboxylic acid (indicated by -OH ) , (b) H2 a( 1–20 )R2 0A, and (c) H2 a( 1–20 )R2 0K […]
and (p) H4 (1 –21)R3Kme3 showing no mass shift s; Charge st at e of labelled ions: [M + H] 5+ for (a), (c–e), and (g), and [MH] + for (b), (f) a nd (h–p). *L ow le v e l MA L D I–TOF MS peaks indicating ~10% product formation. n = 3 (independent assays). Y-axis: relative abundance (%). See Supplem ent ary T able 6 for assay condit ions.
See Figure 3b for specific activities of H2a peptide panel and Figure 3c for summary of K/R subst it ut ions of wild type H2a, H3 and H4 sequences. The –14 Da peak indicated in (f) a n d (h) is due to a MALDI–T O F MS derived modification – se e Supplementary Figure 16.
(§3) [ E nz ym e] [Peptide] [2OG] [Ascorbate] [(NH4)2F e(S O4)2] [TCEP] Buffer pH7.5 Enzyme Cognate substrate (mM) (mM) (mM) (mM) (mM) (mM) [HE PE S]
Supplementary Table 6 Summary of MS assay conditions for substrate screening. These conditions enabled efficient turnover of established substrates. […]

[2] = molecular target: T1, KDM4E; test: Specific hydroxylation activity of KDM4E; assay type: biochemical; conditions: for extent of hydroxylation (in words): KDM4E, relative to H2a(1–20)
Description: as §1, §2
Data collected from time course assay(s) were used to plot the % conversion vs time (min) using GraphPad Prism5 version 5.04; the resultant slopes were used to fit a line with linear regression to the first-order region of the reaction. The resultant gradient was then converted from % product formation min^−1 to amount of peptide converted (demethylation and / or hydroxylation) in µM.
Supplementary Figure 17 Comparison of specific hydroxylation activities of KD M4E with H2a(1–20) when anal ysed by MALDI-TO F MS or LC–MS. Comparison of specific activities for KDM4E catalysed hydroxylation of H2a(1–20) when analysed with MALDI-TOF MS or LC–MS ([…] SD: 0.073 and 0.65 nmol·min−1·mg− 1 SD: 0.01 respectively). n = 3 (independent assays). See Supplementary Table 6 for assay […]
(also on this page, place not known: KDM4E H2a(1 –20) analysed MALDI -TOF LC –MS nmol·min −1·mg−1 nmol·min−1·mg−1 0.8specific activity (nmol·min-1·mg-1)) […]
as §3
Supplementary Table 6 Summary of MS assay conditions for substrate screening. These conditions […]

[3] = system: KDM4D; test: LC–MS conversion (RDM and hydroxylation), KDM4D; assay type: biochemical, human; conditions: for % +16 Da / % -14 Da: 10 µM peptide
Description: as §2
Supplementary Figure 6 Conversion of H2a peptides with increased concentrations of KDM4D.
Comparison of combined RDM and apparent hydroxylation activities of KDM4E and KDM4D with H2a(1– 20) and H2a(1–20 )R3 me2a. (a) Representative LC–MS spectra showing (120-minute incubation) (from top to bottom) KDM4E at 2 µM, KDM4D at 2 µM, and KDM4D at 10 µM with (from left to right) H2 a(1 –2 0 ) a n d […]
shift (hydroxylation). Charge state of labelled ions: [M + H]5+. *Low-level peaks indicating ~5% – 14 Da/+16 Da. (b) Bar graph comparing % product formation by KDM4E and KDM4D of H2a(1–20) and H2a(1– 20)R3me2a; n = 3 (independent assays). Se e Supplementary Table 6 for assay conditions.
(1 picture or pasted object on this page, not shown here)
Supplementary Figure 13 Reactivity of KDM4D with the H2a peptide panel. Representative LC–MS (12 0-minute incubation) of KDM4D at 10 µM with: (a) H2 a(1 –20)R20me2a, (b) H 2 a( 1–20)R20 me2 s, (c) H 2 a( 1– […]
was observed. Charge state of labelled ions: [M + H]5+. Y-axis: relative abundance (%). (e) Bar graph and (f) […]
21)K9me3. n = 2/3 (independent assays). Conditions: 10 µM peptide, 200 µM 2OG, 100 µM sodium L-ascorbate, 10 µM (NH4)2F e ( SO 4)2, and 50 mM HEPES (pH 7.5). […]
as §3
Supplementary Table 6 Summary of MS assay conditions for substrate screening. These conditions enabled efficient turnover of established substrates. Reactions were carried out at 37 °C unless otherwise st ated. […]

[4] = Figure 3b, MALDI–TOF MS, replicate 1
[5] = Figure 3b, MALDI–TOF MS, replicate 2
[6] = Figure 3b, MALDI–TOF MS, replicate 3
[7] = MALDI–TOF MS, mean of n = 3, SD: H2a(1–20) 0.073, R3A 0.002, H2a(1–25) 0.044, H2a(10–29) 0.013
[8] = Figure 3b, LC–MS (*), replicate 1
[9] = Figure 3b, LC–MS (*), replicate 2
[10] = Figure 3b, LC–MS (*), replicate 3
[11] = LC–MS (marked *), mean of n = 3, SD: R20Kme3 0.04, R3me2a 0.05, H2a(1–21) 0.02
[12] = KDM4D 10 µM, 120 min, replicate 1
[13] = KDM4D 10 µM, 120 min, replicate 2
[14] = KDM4D 10 µM, 120 min, replicate 3

mass shift [1]: no mass shift
Substance: Ac -SGK[me3]GKGGKGL GKGGAKR HR KV [H4(1–21)R3Kme3, reference compound]

−14 Da mass shift (demethylation) [1]: 14 Da mass shift
Substance: Ac -SGR [me2a ]GKGGKGL GKGGAKR HR KV [H4(1–21)R3me2a, reference compound]

More lines, now with the values behind:

Substance: Ac - SGAGKQ GGKAR AKAKT R SSR [H2a(1–20)R3A]
+16 Da mass shift (hydroxylation) [1]: +16 Da mass shift
specific activity (hydroxylation) [2, 4]: 0.3692 nmol/min/mg
specific activity (hydroxylation) [2, 5]: 0.3698 nmol/min/mg
specific activity (hydroxylation) [2, 6]: 0.3735 nmol/min/mg
extent of hydroxylation (in words) [2]: reduced activity relative to H2a(1–20)
specific activity (hydroxylation) [2, 7]: 0.37 nmol/min/mg

Substance: Ac - SGR GKQ GGKAR AKAKT R SSA [H2a(1–20)R20A]
+16 Da mass shift (hydroxylation) [1]: lack of a +16 Da mass shift
mass shift [1]: no mass shift
specific activity (hydroxylation) [2, 4]: 0 nmol/min/mg
specific activity (hydroxylation) [2, 5]: 0 nmol/min/mg
specific activity (hydroxylation) [2, 6]: 0 nmol/min/mg
specific activity (hydroxylation) [2, 7]: no activity

Substance: Ac - SGR GKQ GGKAR AKAKT R SSK [H2a(1–20)R20K]
mass shift [1]: no mass shift
specific activity (hydroxylation) [2, 8]: 0 nmol/min/mg
specific activity (hydroxylation) [2, 9]: 0 nmol/min/mg
specific activity (hydroxylation) [2, 10]: 0 nmol/min/mg
extent of hydroxylation (in words) [2]: No evidence for hydroxylation was observed
specific activity (hydroxylation) [2, 11]: no activity

Substance: Ac - SGR GKQ GGKAR AKAKT R SSK[ me 3] [H2a(1–20)R20Kme3]
activity ([3]; KDM4D): No activity was observed
% +16 Da [3, 12]: 0%
% -14 Da [3, 12]: 0%
% +16 Da [3, 13]: 0%
% -14 Da [3, 13]: 0%
% +16 Da [3, 14]: 0%
% -14 Da [3, 14]: 0%
−14 Da mass shift ([3]; KDM4D 10 µM, 120 min, LC–MS): no mass shift
specific activity (hydroxylation) [2, 8]: 0.4536 nmol/min/mg
specific activity (hydroxylation) [2, 9]: 0.3792 nmol/min/mg
specific activity (hydroxylation) [2, 10]: 0.4941 nmol/min/mg
specific activity (hydroxylation) [2, 11]: 0.44 nmol/min/mg

Substance: Ac -SGKGKGGKGL GKGGAKR HR KV [H4(1–21)R3K, reference compound]
mass shift [1]: no mass shift
